Data: the supplement of paper PMC3724861
The other results are listed elsewhere or left out.

Tested on: T1, Caupolican (Caup) homeodomain DNA-binding domain
T1 sequence: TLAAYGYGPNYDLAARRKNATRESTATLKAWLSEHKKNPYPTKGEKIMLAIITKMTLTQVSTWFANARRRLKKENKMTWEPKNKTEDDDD
Assay: PBM E-score (8-mer, recovered from the published 9-mer minima) (E-score (dimensionless, -0.5 to 0.5)); Drosophila protein; higher = stronger relative binding preference, active = 0.31 or more
Method in brief: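 Caup's homeodomain DNA-binding domain (residues 214-303) was produced by in vitro transcription and translation and applied at 100 nM to custom-designed protein binding microarrays. Each value is an enrichment score giving relative binding preference for a short DNA word; higher means stronger. Published 9-mer scores were the minimum of their two constituent 8-mer scores, and the 8-mer values were recovered from those minima. A cutoff of 0.31 marks candidate binding sequences.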

Row | Sequence | PBM E-score
1 | AAACAAGC | inactive: 0.254
2 | AATGCCAA | inactive: 0.00972
3 | ACCTGCCC | inactive: -0.157
4 | AAGCTACC | inactive: 0.03
5 | TACTCGCA | inactive: -0.0284
6 | GTTACGGA | inactive: 0.0254
7 | GACATCGA | inactive: 0.24
8 | ATGTATTA | active: 0.373
9 | CGCACCGC | inactive: -0.173
10 | AACTCTTA | inactive: 0.0508
11 | GGCCCGAC | inactive: -0.183
12 | GGTCGTAA | inactive: 0.0682
13 | CGCACGCC | inactive: -0.222
14 | ATTTGTTC | inactive: 0.225
15 | ACTCTCTG | inactive: -0.0214
16 | AGGATTAG | inactive: 0.0867
17 | CCGGGACA | inactive: 0.0605
18 | GCTGTACC | inactive: 0.0813
19 | AAGGTGCG | inactive: -0.106
20 | CTTATCTC | inactive: -0.0307
21 | AACGAGGG | inactive: -0.0492
22 | CAGACCTG | inactive: -0.00642
23 | AGGTTAAT | inactive: 0.0346
24 | ACTCAGAA | inactive: 0.00328

Row | Sequence | PBM E-score
25 | GAGACAAC | inactive: 0.17
26 | AAAGCAGT | inactive: -0.0257
27 | GAGGTGAC | inactive: -0.0495
28 | CCATCATA | inactive: 0.02
29 | AGCTTACC | inactive: -0.108
30 | AATGGCCC | inactive: -0.146
31 | ACGTCACG | inactive: 0.0623
32 | CGGAATGC | inactive: -0.175
33 | ACATTCAA | inactive: 0.14
34 | AGGCATAC | inactive: 0.0498
35 | AATAACCT | ≥ 0.142
36 | GAGTGTCC | inactive: -0.0536
37 | CGGATCCA | inactive: -0.0146
38 | AGTAGTCA | inactive: 0.0805
39 | AACACCAC | inactive: 0.179
40 | GCTGAAAA | inactive: 0.0481
41 | CTATGAAC | inactive: 0.0693
42 | GAAGGCTA | inactive: -0.158
43 | CTCCCGGA | inactive: -0.174
44 | AAGATGCG | inactive: -0.0403
45 | AACACGAA | inactive: 0.293
46 | GACGTGTA | active: 0.344
47 | CTGAGAAA | inactive: -0.0455
48 | CTCTTTTC | inactive: -0.1

Row | Sequence | PBM E-score
49 | CTCCCCTC | inactive: -0.172
50 | CACGACAA | inactive: 0.265
51 | AAGTACAA | active: 0.327
52 | ATCCGATA | inactive: 0.124
53 | GGGTATCA | inactive: -0.0054
54 | AGAGGACT | inactive: -0.13
55 | AGGTTTAC | inactive: 0.0847
56 | ACTGGAGA | inactive: -0.0781
57 | ATCACAAG | inactive: 0.198
58 | ATGCGCGA | inactive: -0.0858
59 | TCGATCCA | inactive: 0.01
60 | ATGCTTGA | inactive: 0.109
61 | AAAGACCC | inactive: -0.122
62 | ATCAGCAA | inactive: 0.0179
63 | AATGCCGG | inactive: -0.143
64 | TAATTAGA | inactive: 0.1
65 | AAGAAACC | inactive: 0.0364
66 | GTCAGCAA | inactive: 0.0474
67 | ACCATCGA | ≥ 0.0724
68 | AGCCATTA | inactive: 0.00576
69 | TGACATCA | active: ≥ 0.333
70 | ACACGTTC | inactive: 0.209
71 | ACGGCCGG | inactive: -0.145
72 | ACATTTGA | inactive: 0.231

Row | Sequence | PBM E-score
73 | AATCTTGC | inactive: 0.0894
74 | TAAGCGAA | inactive: -0.00816
75 | CCTGGAGC | inactive: -0.159
76 | ACTATTAC | inactive: 0.195
77 | TATAACCA | ≥ 0.167
78 | CTAAAGTC | inactive: -0.0578
79 | CTACATAA | inactive: 0.22
80 | GTTGCAAC | inactive: 0.0757
81 | CATAGGCC | inactive: -0.0635
82 | AGACCAAC | inactive: -0.0292
83 | CAAGGATG | inactive: 0.0179
84 | CTTGGCGA | inactive: -0.216
85 | AAGAGCTA | inactive: 0.0416
86 | ACTCGCCC | inactive: -0.233
87 | GGCTCAAA | inactive: -0.124
88 | CCAACCTC | inactive: -0.0872
89 | AAAAATAT | ≥ 0.166
90 | GCGATCAC | inactive: -0.0434
91 | CGTTCACC | inactive: -0.0587
92 | AAAACGTA | inactive: 0.0479
93 | CTAGGATA | inactive: 0.0173
94 | ACGCTATG | inactive: 0.00658
95 | CCATTCCC | inactive: -0.157
96 | CGTGAACG | inactive: -0.0689

Row | Sequence | PBM E-score
97 | ATAAATTG | ≥ 0.199
98 | GCTTTAAC | inactive: 0.015
99 | ATTGATTG | inactive: 0.125
100 | AATACGTG | inactive: 0.223
101 | GACGGATC | inactive: -0.0286
102 | AAAACATA | inactive: 0.284
103 | AGTATCTC | inactive: 0.0637
104 | GACTTTGC | inactive: -0.0963
105 | GAGAGAAA | inactive: -0.124
106 | CCCGCGCG | inactive: -0.169
107 | CGGGTGAA | inactive: -0.0575
108 | GGCCGGAC | inactive: -0.252
109 | GCCAGCTA | inactive: -0.0722
110 | AGTCCGGG | inactive: -0.154
111 | CTGCCTAC | inactive: -0.061
112 | CGTCGCCA | inactive: -0.127
113 | ATCCAGGG | inactive: -0.216
114 | TAACCGTA | inactive: 0.0558
115 | GGACCCAA | inactive: -0.179
116 | GCTATTCA | inactive: 0.115
117 | TTGTAAAA | inactive: 0.275
118 | ACATCGAG | inactive: 0.186
119 | GCGTTAAC | inactive: -0.0237
120 | CTTTATGC | inactive: -0.0282

Row | Sequence | PBM E-score
121 | CCCAGTAA | inactive: -0.0251
122 | TCGAAGAA | inactive: -0.0229
123 | ACAGAAAT | inactive: 0.136
124 | ACCAGAAA | inactive: 0.0723
125 | AGGCTCAT | inactive: -0.134
126 | ACTATCTG | inactive: 0.0766
127 | AAGTGCAT | ≥ 0.145
128 | CCCTCCAA | inactive: -0.198
129 | ACAAGATG | inactive: 0.293
130 | ACAAGGAG | inactive: 0.224
131 | ATTCGCAG | inactive: -0.00899
132 | AAGTTAGA | inactive: 0.14
133 | TAATCCGA | inactive: 0.0989
134 | CTTAAAAG | inactive: -0.0475
135 | CGAGATAG | inactive: -0.0896
136 | AAGCCACG | inactive: -0.154
137 | AGCGCGAG | inactive: -0.0923
138 | CCATACAC | inactive: 0.105
139 | AACGGCTG | inactive: -0.0595
140 | AAATTGGC | inactive: -0.113
141 | ATTTGTAG | inactive: 0.239
142 | GCCACACC | inactive: -0.027
143 | ATCACGTA | ≥ 0.14
144 | CCTACAAC | inactive: 0.21
